From PubChem BioAssay AID1963576 (National Center for Advancing Translational Sciences (NCATS), 2024)
Screen size: about 46,000 compounds; about 60 (0.1%) were called active. Not shown: some 3% with an inconclusive outcome. Calls follow the shape of the dose curve; as a rule, active = well fitted inhibition curve with a large enough effect; inconclusive = small, poorly fitted or top-dose-only effect; inactive = no such curve, though single readings can be large or run the other way. This is one part of the list.

Assay: Primary qHTS assay for Inhibitors of ovarian cancer metastasis using an organotypic tumor microenvironment (TME) model. Also: nearly all actives have a fitted effect of over 65% in size.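 As to activity change, negative = inhibition: plate controls were DMSO wells for no effect and tomatine positive control wells for full effect.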
Settings: SKOV3ip1-GFP adhesion/invasion on 3D omental model, fluorescence; series mostly up to 45.8 µM; activity change, negative = inhibition: at the top concentration
Summary of the method: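 Primary human omental fibroblast/mesothelial 3D culture pre-formed 48 h. SKOV3ip1-GFP cells added with compounds (0.36-46 umol/L), incubated 2 h RT/16 h 37 C, fixed; GFP cells quantified at 488/509 nm.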

Activity change, negative = inhibition, inactive:
COc1ccc(NC(=O)C(NS(=O)(=O)c2cccc3nsnc23)C(C)C)cc1 (stereo not given) 7.8%
COc1ccccc1CNc1nc2c(S(=O)(=O)c3ccc(C)c(C)c3)nnn2c2ccc(Cl)cc12 4.75%
COC(=O)c1ccc(C2Nc3c(C)cccc3-c3cc(C)nn32)cc1 (stereo not given) 0.693%
O=C(c1ccc(F)cc1)c1cn(Cc2ccccc2)c2cc3c(cc2c1=O)OCO3 -8.52%
NC[C@H]1O[C@H](O[C@@H]2[C@@H](O)[C@@H](O[C@H]3O[C@H](CO)[C@@H](O)[C@H](N)[C@@H]3O)[C@H](N)C[C@@H]2N)[C@H](O)[C@@H](O)[C@H]1O 1.32%
COc1ccc(NC(=O)c2cc3ccccc3o2)c(OC)c1 0.799%
CCOC(=O)c1c(NC(=O)c2cc(-c3ccc(Br)cc3)on2)sc(C(C)=O)c1C 4.1%
CC1CCCN(c2cc3c(cc2F)c(=O)c(S(=O)(=O)c2cccc(Cl)c2)cn3Cc2ccccc2)C1 (stereo not given) -3.64%
O=C(Nc1c(C(=O)N2CCN(c3ccccc3F)CC2)oc2ccccc12)c1cccc(F)c1 -8.32%
COc1ccc(CCNC(=O)C(=O)NCC(c2ccco2)S(=O)(=O)c2ccc(C)cc2)cc1 (stereo not given) 6.64%
CCC(C(=O)Nc1cc(C)ccc1C)n1c(=O)c(C(F)(F)F)nc2ccccc21 (stereo not given) -9.84%
COc1ccc(C(=O)/C=C/c2cn(CC(O)CN3CCc4ccccc43)c3ccccc23)cc1OC (stereo not given) 1.25%
Cc1ccc(NC(=O)C2CCCN(S(=O)(=O)c3c(C)n[nH]c3C)C2)c(C)c1 (stereo not given) 5.14%
COc1ccc(OC)c(/C=C/c2nc3ccccc3c(=O)n2-c2ccc(F)c(Cl)c2)c1 -4.41%
COCc1nnc(NC(=O)c2cc(OC)c(OC)c(OC)c2)s1 20%
COc1ccc(CCNC(=O)c2ccc3c(c2)N(Cc2ccc(F)cc2)C(=O)c2ccccc2S3(=O)=O)cc1OC 13.4%
CCOC(=O)c1ccc(NC(=O)Cn2cc(C(=O)C3CC3)c3ccccc32)cc1 -0.444%
CCc1nn(CC(=O)NCc2ccco2)c(=O)c2cc3c(OC)cccc3n12 -9.83%

outcome, inactive:
O=C(Cn1c(=O)oc2cc(S(=O)(=O)NCc3ccccc3)ccc21)Nc1cccc(F)c1
Cc1oc(-c2ccc(C(=O)Nc3ccc(F)cc3)cc2)nc1COc1ccccc1
COc1ccc(C2=CC(c3cc(Br)ccc3F)n3c(nc4ccccc43)N2)cc1 (stereo not given)
O=C(CCn1c(=O)c2cccn2c2cccnc21)N1CCN(c2cccc(C(F)(F)F)c2)CC1
CC(C)NC(=O)c1ccc(Cn2c(SCc3ccc(F)cc3)nc3cccnc32)cc1
COc1cccc(CNS(=O)(=O)c2cnc(N)nc2)c1
C=CCc1cccc2cc(-c3nc4ccc(C)cc4[nH]3)c(=O)oc12
